# Measured values published in the supplement of paper PMC8728848.
# This is one part of the list.
# B1: B160 (Bifidobacterium sp) (protein)
# chain: MVSHNKRIVAALAAVAAMGIGLAGCGGSDTAGDTKSGSDGGVVNITYMHRLPDSEGMTLVNDIVAKWNKEHPNIQVKATKFDGNAADMIKKLETDVKAGNAPDLAQVGYAEVPEVFTKGLLQDVTDEAAKYKDDFASGPFALMQVDGKTYGLPQDTGPLTYFYNAAEFEKLGITVPKTADELIETAKKTAAQGKYIMTFTPDEAMMMMSGQAGASGPWYKVDGNSWVVNTQTKGSKAVADVYQQLIDNKAALTNPRWDASFDNSIQSGQLIGTVAAAWEAPLFIDSAGGTGAGEWKVTQLGDWFGNGTKTGANGGSGVAVLKGSKHPAEAMEFLDWFNTQVDDLVSQGLVVAATTADAKTPQKWSDYFSGQDVMAEFKTANDNMGDFTYMPGFSAVGAAMKQTAAKAADGSAKVSDVFDTAQKTSVDTLKNLGLSVKE
# Key:
# Assay in all cases: glycan array binding signal (z-score within array); higher = stronger binding
# Conditions in all cases: glycan notation: IUPAC condensed, linker removed
# [1] = biological target: Gal(a1-3)Gal(b1-4)GlcNAc(b1-2)Man
# Outline: (§1)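 The binding signal is a Z-score computed within each array and averaged over linkers. Arrays of the same protein sequence at different concentrations or buffers were also averaged together. Data originate from 3228 arrays in the Consortium for Functional Glycomics database, kept only where the protein sequence was available.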
# [2] = biological target: Gal(a1-3)Gal(b1-4)GlcNAc(b1-2)Man(a1-3)[Gal(a1-3)Gal(b1-4)GlcNAc(b1-2)Man(a1-6)]Man(b1-4)GlcNAc(b1-4)GlcNAc
# Outline: as §1
# [3] = biological target: Gal(a1-3)Gal(b1-4)GlcNAc(b1-3)GalNAc
# Outline: as §1
# [4] = biological target: Gal(a1-3)Gal(b1-4)GlcNAc(b1-6)GalNAc
# Outline: as §1
# [5] = biological target: Gal(a1-3)Gal(b1-4)[Fuc(a1-3)]GlcNAc
# Outline: as §1
# [6] = biological target: Gal(a1-3)Gal(b1-4)[Fuc(a1-3)]GlcNAc(b1-2)Man(a1-3)[Gal(a1-3)Gal(b1-4)[Fuc(a1-3)]GlcNAc(b1-2)Man(a1-6)]Man(b1-4)GlcNAc(b1-4)GlcNAc
# Outline: as §1
# Gal(a1-3)GalNAc = biological target: Gal(a1-3)GalNAc
# Outline: as §1
# [7] = biological target: Gal(a1-3)[Gal(a1-4)]Gal(b1-4)GlcNAc
# Outline: as §1
# [8] = biological target: Gal(a1-4)Gal(b1-3)GlcNAc(b1-2)Man(a1-3)[Gal(a1-4)Gal(b1-3)GlcNAc(b1-2)Man(a1-6)]Man(b1-4)GlcNAc(b1-4)GlcNAc
# Outline: as §1
# Gal(a1-4)Gal(b1-4)Glc = biological target: Gal(a1-4)Gal(b1-4)Glc
# Outline: as §1
# Gal(a1-4)Gal(b1-4)GlcNAc = biological target: Gal(a1-4)Gal(b1-4)GlcNAc
# Outline: as §1
# [9] = biological target: Gal(a1-4)Gal(b1-4)GlcNAc(b1-2)Man(a1-3)[Gal(a1-4)Gal(b1-4)GlcNAc(b1-2)Man(a1-6)]Man(b1-4)GlcNAc(b1-4)GlcNAc
# Outline: as §1
# [10] = biological target: Gal(a1-4)Gal(b1-4)GlcNAc(b1-3)Gal(b1-4)Glc
# Outline: as §1
# Gal(a1-4)GlcNAc = biological target: Gal(a1-4)GlcNAc
# Outline: as §1
# Gal(a1-6)Glc = biological target: Gal(a1-6)Glc
# Outline: as §1
# Gal(b1-2)Gal = biological target: Gal(b1-2)Gal
# Outline: as §1
# Gal(b1-3)Gal = biological target: Gal(b1-3)Gal
# Outline: as §1
# Gal(b1-3)Gal(b1-4)GlcNAc = biological target: Gal(b1-3)Gal(b1-4)GlcNAc
# Outline: as §1
# Gal(b1-3)GalNAc = biological target: Gal(b1-3)GalNAc
# Outline: as §1
# [11] = biological target: Gal(b1-3)GalNAc(a1-3)[Fuc(a1-2)]Gal(b1-4)Glc
# Outline: as §1
# [12] = biological target: Gal(b1-3)GalNAc(a1-3)[Fuc(a1-2)]Gal(b1-4)GlcNAc
# Outline: as §1
# Gal(b1-3)GalNAc(b1-3)Gal = biological target: Gal(b1-3)GalNAc(b1-3)Gal
# Outline: as §1
# [13] = biological target: Gal(b1-3)GalNAc(b1-3)Gal(a1-4)Gal(b1-4)Glc
# Outline: as §1
# [14] = biological target: Gal(b1-3)GalNAc(b1-4)Gal(b1-4)Glc
# Outline: as §1
# [15] = biological target: Gal(b1-3)GalNAc(b1-4)[Neu5Ac(a2-3)]Gal(b1-4)Glc
# Outline: as §1
# Gal(b1-3)GlcNAc = biological target: Gal(b1-3)GlcNAc
# Outline: as §1
# [16] = biological target: Gal(b1-3)GlcNAc(a1-3)Gal(b1-4)GlcNAc
# Outline: as §1
# [17] = biological target: Gal(b1-3)GlcNAc(a1-6)Gal(b1-4)GlcNAc
# Outline: as §1
# Gal(b1-3)GlcNAc(b1-2)Man = biological target: Gal(b1-3)GlcNAc(b1-2)Man
# Outline: as §1
# [18] = biological target: Gal(b1-3)GlcNAc(b1-2)Man(a1-3)[Gal(b1-3)GlcNAc(b1-2)Man(a1-6)]Man(b1-4)GlcNAc(b1-4)GlcNAc
# Outline: as §1
# [19] = biological target: Gal(b1-3)GlcNAc(b1-2)Man(a1-3)[Gal(b1-3)GlcNAc(b1-2)Man(a1-6)]Man(b1-4)GlcNAc(b1-4)[Fuc(a1-6)]GlcNAc
# Outline: as §1
# [20] = biological target: Gal(b1-3)GlcNAc(b1-2)Man(a1-3)[GlcNAc(b1-4)][Gal(b1-3)GlcNAc(b1-2)Man(a1-6)]Man(b1-4)GlcNAc(b1-4)GlcNAc
# Outline: as §1
# [21] = biological target: Gal(b1-3)GlcNAc(b1-2)[Gal(b1-3)GlcNAc(b1-6)]Man(a1-6)[Gal(b1-3)GlcNAc(b1-2)Man(a1-3)]Man(b1-4)GlcNAc(b1-4)GlcNAc
# Outline: as §1
# [22] = biological target: Gal(b1-3)GlcNAc(b1-3)Gal(b1-3)GlcNAc
# Outline: as §1
# [23] = biological target: Gal(b1-3)GlcNAc(b1-3)Gal(b1-4)Glc
# Outline: as §1
# [24] = biological target: Gal(b1-3)GlcNAc(b1-3)Gal(b1-4)GlcNAc
# Outline: as §1
# [25] = biological target: Gal(b1-3)GlcNAc(b1-3)Gal(b1-4)GlcNAc(b1-2)Man(a1-3)[Gal(b1-3)GlcNAc(b1-3)Gal(b1-4)GlcNAc(b1-2)Man(a1-6)]Man(b1-4)GlcNAc(b1-4)GlcNAc
# Outline: as §1
binder,measurement,setting,value
B1,glycan array binding signal (z-score),[1],-0.17
same,glycan array binding signal (z-score),[2],-0.115
same,glycan array binding signal (z-score),[3],-0.176
same,glycan array binding signal (z-score),[4],-0.159
same,glycan array binding signal (z-score),[5],-0.195
same,glycan array binding signal (z-score),[6],-0.139
same,glycan array binding signal (z-score),Gal(a1-3)GalNAc,-0.18
same,glycan array binding signal (z-score),[7],-0.129
same,glycan array binding signal (z-score),[8],-0.093
same,glycan array binding signal (z-score),Gal(a1-4)Gal(b1-4)Glc,-0.159
same,glycan array binding signal (z-score),Gal(a1-4)Gal(b1-4)GlcNAc,-0.173
same,glycan array binding signal (z-score),[9],-0.059
same,glycan array binding signal (z-score),[10],-0.177
same,glycan array binding signal (z-score),Gal(a1-4)GlcNAc,-0.18
same,glycan array binding signal (z-score),Gal(a1-6)Glc,-0.174
same,glycan array binding signal (z-score),Gal(b1-2)Gal,-0.184
same,glycan array binding signal (z-score),Gal(b1-3)Gal,3.65
same,glycan array binding signal (z-score),Gal(b1-3)Gal(b1-4)GlcNAc,11.7
same,glycan array binding signal (z-score),Gal(b1-3)GalNAc,0.835
same,glycan array binding signal (z-score),[11],-0.053
same,glycan array binding signal (z-score),[12],-0.175
same,glycan array binding signal (z-score),Gal(b1-3)GalNAc(b1-3)Gal,6.25
same,glycan array binding signal (z-score),[13],-0.148
same,glycan array binding signal (z-score),[14],8.55
same,glycan array binding signal (z-score),[15],-0.169
same,glycan array binding signal (z-score),Gal(b1-3)GlcNAc,2.09
same,glycan array binding signal (z-score),[16],-0.206
same,glycan array binding signal (z-score),[17],-0.157
same,glycan array binding signal (z-score),Gal(b1-3)GlcNAc(b1-2)Man,-0.148
same,glycan array binding signal (z-score),[18],-0.111
same,glycan array binding signal (z-score),[19],-0.169
same,glycan array binding signal (z-score),[20],-0.118
same,glycan array binding signal (z-score),[21],-0.131
same,glycan array binding signal (z-score),[22],-0.156
same,glycan array binding signal (z-score),[23],4.36
same,glycan array binding signal (z-score),[24],4.98
same,glycan array binding signal (z-score),[25],5.11
